Results as given in paper PMC4336329 (PLoS ONE, 2015).
Screen size: about 310,000 compounds; about 14,000 (4.5%) showed an effect of 50% or more. The effect is printed as a negative number. The list shows a part of the results.

These compounds were tested against human ether-à-go-go-related gene (hERG) potassium channel (human, UniProt Q12809) (assay: primary screen, population patch clamp on CHO cells stably expressing hERG).
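Further: peak tail current of the secondary pulse compared with the same well before compound.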

Sequence of human ether-à-go-go-related gene (hERG) potassium channel (Q12809 whole entry, looked up): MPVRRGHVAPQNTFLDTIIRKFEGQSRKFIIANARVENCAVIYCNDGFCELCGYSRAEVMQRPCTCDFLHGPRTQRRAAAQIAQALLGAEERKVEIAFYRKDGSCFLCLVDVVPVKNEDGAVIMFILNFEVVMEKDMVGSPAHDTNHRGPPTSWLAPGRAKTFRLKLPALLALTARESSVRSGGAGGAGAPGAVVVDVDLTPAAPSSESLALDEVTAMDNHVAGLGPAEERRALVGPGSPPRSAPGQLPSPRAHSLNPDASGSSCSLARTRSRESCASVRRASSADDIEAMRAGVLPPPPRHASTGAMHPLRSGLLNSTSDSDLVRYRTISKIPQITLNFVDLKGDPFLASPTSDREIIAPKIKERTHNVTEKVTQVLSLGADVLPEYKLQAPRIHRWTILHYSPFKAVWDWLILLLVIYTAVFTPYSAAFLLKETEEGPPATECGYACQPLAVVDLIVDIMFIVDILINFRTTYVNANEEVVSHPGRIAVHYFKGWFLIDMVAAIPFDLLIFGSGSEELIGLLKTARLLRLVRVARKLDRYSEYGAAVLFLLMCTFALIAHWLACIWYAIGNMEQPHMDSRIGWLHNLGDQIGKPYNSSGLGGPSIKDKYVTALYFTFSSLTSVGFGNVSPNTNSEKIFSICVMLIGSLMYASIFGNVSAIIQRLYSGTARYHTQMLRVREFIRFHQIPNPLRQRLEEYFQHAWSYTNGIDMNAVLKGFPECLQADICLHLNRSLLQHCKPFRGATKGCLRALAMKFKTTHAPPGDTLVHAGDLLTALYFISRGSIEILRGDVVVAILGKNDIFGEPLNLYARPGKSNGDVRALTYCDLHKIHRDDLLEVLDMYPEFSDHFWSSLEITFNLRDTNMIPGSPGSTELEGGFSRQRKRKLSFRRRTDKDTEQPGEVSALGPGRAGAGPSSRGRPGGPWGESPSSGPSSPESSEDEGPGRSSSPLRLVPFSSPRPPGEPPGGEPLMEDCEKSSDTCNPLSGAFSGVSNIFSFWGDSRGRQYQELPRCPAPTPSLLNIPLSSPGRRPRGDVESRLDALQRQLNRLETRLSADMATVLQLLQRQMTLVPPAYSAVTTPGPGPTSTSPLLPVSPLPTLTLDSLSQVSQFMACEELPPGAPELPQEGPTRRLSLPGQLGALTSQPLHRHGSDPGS

| Structure (SMILES) | hERG current change (%, negative = inhibition) at 10uM |
| --- | --- |
| Cc1ccc(Nc2c(-c3cccnc3)nc3ccc(Br)cn23)cc1 | -23.7% |
| Cc1cccc(NC(=O)C[n+]2ccc(N(C)C)cc2)c1.[Cl-] | 14% |
| CC1(C)CC(=O)C=C(Nc2ccccc2O)C1 | 15.7% |
| CC1CC(C)CN(c2nc3c(c(=O)n(C)c(=O)n3C)n2CCSc2ncccn2)C1 (centres unmarked) | -15.2% |
| O=C(CN1C(=O)CSC1=O)N1CCc2ccccc2C1 | 9.51% |
| COC(=O)c1cc(S(=O)(=O)N2CCN(c3ccc(F)cc3)CC2)c[nH]1 | 16.9% |
| COc1cccc(-n2c(SCC(N)=O)nnc2-c2ccncc2)c1 | 16% |
| O=C(Cn1c2ccc(F)cc2c2nc3n(c(=O)c21)CCS3)Nc1ccccc1C(F)(F)F | 15.6% |
| Cc1nn(C(=O)CCCn2cc([N+](=O)[O-])cn2)c(C)c1Cl | -46.3% |
| CN1C(=O)OC(C)(CCc2ccccc2)C1(C)O (centres unmarked) | 11.5% |
| CC(=O)Nc1c(Cl)cnn(-c2ccccc2)c1=O | 16.7% |
| O=C(O)CN=C(NS(=O)(=O)c1ccc(Cl)cc1)c1ccccc1 | 13.7% |
| CCOc1cccc(/C=C(\C#N)C(=O)NC2CC2)c1 | 4.33% |
| COc1ccc(N(C(=O)Nc2ccc(Cl)cc2)C2=NCCC2)cc1 | -5.35% |
| O=Cc1cccc(OCc2cccc3ccccc23)c1 | 5.87% |
| S=C(Nc1ccccc1)N1CCN(c2ccccn2)CC1 | 7.75% |
| COc1ccccc1NS(=O)(=O)c1cccc(NC(=O)Nc2cccc(Cl)c2)c1 | -4.54% |
| COc1ccc(CN2CCCCCC2)c(C)c1C | -28.3% |
| COC(=O)c1ccc(N2CCN(CC(=O)c3ccc(-c4ccccc4)cc3)CC2)c([N+](=O)[O-])c1 | 8.75% |
| O=C(Nc1cccc2ccccc12)NC1CCS(=O)(=O)C1 (centres unmarked) | 21.5% |
| Cc1ccc(CS(=O)(=O)CCC(=O)NCCC2=CCCCC2)cc1 | 19.3% |
| COc1ccc(-n2nnnc2Sc2ccc(S(=O)(=O)N3CCOCC3)cn2)cc1 | -6.54% |
| Cc1ccc2oc(C(=O)Nc3nnc(C)s3)c(C)c2c1 | 1.82% |
| O=C(CNC(=O)c1ccccn1)N/N=C/c1ccc2c(c1)OCO2 | 2.6% |
| O=C(CN1C(=O)c2cccnc2Oc2ccc(Cl)cc21)NCCc1ccccc1 | -8.11% |
| Cc1ccc2c(CC(=O)NC3=NCCS3)coc2c1 | -1.5% |
